In the data set the test system is ATP. Nature of the data set: switch fluorescence ratio, 500 uM ATP over buffer (Cy3 cluster intensity, sum of 5 cycles each) (fold (ratio)); higher = stronger signal-on switching upon ATP binding; sequences stand for … in TCGTCGGCAGCGTCAGATGTGTATAAGAGACAGTTTTTTTTTTTTTTTTTTTTTTTTT…TC. As to conditions: aptamer strand: ATP DNA aptamer (quencher-CACCTGGGGGAGTATTGCGGAGGAAGG + anchor), 100 nM annealed; ATP concentration: 500 uM; one replicate. In short, it runs like this:
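Clusters with intensities outside 100-1000 RFU were excluded. The remaining Cy3-labelled switching-strand clusters on a modified Illumina MiSeq flow-cell had been annealed to 100 nM quencher-labelled ATP aptamer and imaged in selection buffer, then after 15 min with 500 uM ATP at 22 °C, for five cycles separated by NaOH stripping and re-annealing. The fluorescence ratio, averaged per switch-domain sequence, is each cluster's summed target-cycle Cy3 intensity over its summed buffer-cycle Cy3 intensity.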

Values marked as one replicate rest on one cluster of the flow cell; about a third of the high ones do not repeat.
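Further: ATP exposure 15 min at 22 °C before imaging.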

Take CGGATACCGA: the switch fluorescence ratio was 1.23.

Consider CGTCTGCCTA, for which the switch fluorescence ratio was 1.05.

On to GCGAATGATC, for which the switch fluorescence ratio is 1.03.

Turning to CCATAAGATG, the switch fluorescence ratio was found to be 0.998.

Take CCTGGATTAA: the switch fluorescence ratio was found to be 1.05.

As for GCGAACGTGC, the switch fluorescence ratio was 1.12.

Consider CTGAGGGTTC, for which the switch fluorescence ratio was determined as 0.985.

As to CACGCATATT, the switch fluorescence ratio came to 1.37.

For the sequence ATAAGTCCCC, the switch fluorescence ratio was 1.09.

As for ACCTCCCTGG, the switch fluorescence ratio came out at 1.32.

Consider ATTATTATTT, for which the switch fluorescence ratio came to 0.958.

On to TAACTTCTTC, for which the switch fluorescence ratio worked out at 1.01.

For the sequence TACTAACTGG, the switch fluorescence ratio came out at 1.23.

On to GCAATATTTA, for which the switch fluorescence ratio is 1.25.

As for CCCCGCGTTG, the switch fluorescence ratio was determined as 1.13.

In the case of CGACTGGATT, the switch fluorescence ratio stood at 1.02.

Regarding TGCTGGCGCT, the switch fluorescence ratio worked out at 0.95.

For AAATTTGG, the switch fluorescence ratio came to 0.96.

For CTTTGACGAT, the switch fluorescence ratio was determined as 1.

TTTTCCAG: the switch fluorescence ratio was 1.

As for AAAATAAGCT, the switch fluorescence ratio turned out to be 1.04.

With TAGATTTGAA, the switch fluorescence ratio came out at 0.984.

Consider CAGAGTGTGC, for which the switch fluorescence ratio was found to be 1.05.

ATTATACTG: the switch fluorescence ratio came to 1.05.

In the case of AGAATTAGGT, the switch fluorescence ratio turned out to be 0.945.

For the sequence GAAAACCAGA, the switch fluorescence ratio amounted to 1.02.

For the sequence TAGGACTCAC, the switch fluorescence ratio stood at 1.18.

Regarding GATTGACTTT, the switch fluorescence ratio came out at 1.08.

TAGCGATGAT: the switch fluorescence ratio was determined as 1.02.

With TCTTACCCCA, the switch fluorescence ratio turned out to be 1.03.

For the sequence CCTCTGCCGT, the switch fluorescence ratio was 1.96.

Turning to GACTTCAAAT, the switch fluorescence ratio is 1.02.

Take TATGTACAGC: the switch fluorescence ratio worked out at 1.04.

Consider TGCGATGGC, for which the switch fluorescence ratio came out at 1.38.

As for CGTCCCAGTT, the switch fluorescence ratio was found to be 1.06.

With CGAAGTCGCG, the switch fluorescence ratio came out at 0.99.

Regarding GGTCCGGAGT, the switch fluorescence ratio came to 1.07.

Regarding TTGCCTAACA, the switch fluorescence ratio turned out to be 1.03.

Consider TAGGCTTAGT, for which the switch fluorescence ratio was found to be 1.

TTCCTCTAGA: the switch fluorescence ratio was 1.63.

For the sequence GAAGCTGACT, the switch fluorescence ratio came out at 1.04.

Consider TTACTCGCAC, for which the switch fluorescence ratio was determined as 2.17.

As to GACAGACTAT, the switch fluorescence ratio came to 1.05.

As for GAGCCGAACA, the switch fluorescence ratio is 0.992.

On to AAACCACATT, for which the switch fluorescence ratio worked out at 1.03.

ATTTATCTAT: the switch fluorescence ratio is 0.968.

Turning to CTATTATAAA, the switch fluorescence ratio came to 1.02.

With CGATTAAACA, the switch fluorescence ratio was determined as 0.976.

As to TTCTATCGGA, the switch fluorescence ratio came out at 1.02.

Consider GTCAGAAGCT, for which the switch fluorescence ratio was 0.988.

As for TCATCATCAA, the switch fluorescence ratio stood at 1.17.

On to CTGGACGAGA, for which the switch fluorescence ratio worked out at 0.969.

Regarding CAAGGGCTTA, the switch fluorescence ratio turned out to be 0.993.

For the sequence CTGTAGTGAT, the switch fluorescence ratio was determined as 1.

GATTTAAAT: the switch fluorescence ratio came to 1.12.

As to CTTATGGTTA, the switch fluorescence ratio worked out at 0.973.

On to TCCCTTTCAG, for which the switch fluorescence ratio was 1.02.

Regarding GTAATTATC, the switch fluorescence ratio was found to be 1.04.

Take ACTAAGCCTT: the switch fluorescence ratio was determined as 1.13.

Take TTTGTCTACC: the switch fluorescence ratio stood at 0.993.

As to TTTACGAATT, the switch fluorescence ratio was 1.04.

Regarding TATATGACAG, the switch fluorescence ratio was determined as 1.01.

AGGCATTATG: the switch fluorescence ratio is 1.05.

Regarding ACAGAGATTC, the switch fluorescence ratio was 1.02.

Regarding ATCGCTAGGT, the switch fluorescence ratio stood at 1.04.

As to GTGACCACCT, the switch fluorescence ratio came to 1.07.

On to CGCAGGTTGT, for which the switch fluorescence ratio was 1.1.

As for CCAAAGTAGC, the switch fluorescence ratio was found to be 1.4.

Regarding AGTTACCTGC, the switch fluorescence ratio is 0.974.

Take GACAGCACTG: the switch fluorescence ratio amounted to 0.936.

For ACCGGTAAT, the switch fluorescence ratio was 0.966.

On to GGCGACAAGT, for which the switch fluorescence ratio is 0.972.

For TATGGAGTG, the switch fluorescence ratio worked out at 1.01.

CTAACGTAGC: the switch fluorescence ratio worked out at 1.11.

Take ATTTAAGGTG: the switch fluorescence ratio came to 1.39.

Regarding TTTCTCATCG, the switch fluorescence ratio is 0.962.

Consider CTTGTACGAG, for which the switch fluorescence ratio came out at 1.05.

Regarding ATGCCGATGG, the switch fluorescence ratio amounted to 0.967.

In the case of TTATGTGGCC, the switch fluorescence ratio is 1.01.

Regarding TTCTGGGAAG, the switch fluorescence ratio came out at 0.989.

For CGACGATAGA, the switch fluorescence ratio was 1.15.

In the case of ATCAGCGGGG, the switch fluorescence ratio worked out at 0.981.

For the sequence TTGTAGAGCG, the switch fluorescence ratio was found to be 0.956.

ACCTATCTCT: the switch fluorescence ratio amounted to 1.05.

Take TCACGTACGT: the switch fluorescence ratio is 1.62.

CACTTCTTGT: the switch fluorescence ratio was 0.988.

With CAGTATTGG, the switch fluorescence ratio stood at 0.976.

As for GGCGACCCTT, the switch fluorescence ratio turned out to be 1.02.

With AGGCGAGAAC, the switch fluorescence ratio was determined as 1.06.

As to GCGTCGTCCT, the switch fluorescence ratio came to 0.962.

As to GTTGTCTCCG, the switch fluorescence ratio was determined as 1.02.

Consider TATTAGCTGC, for which the switch fluorescence ratio was 1.

For the sequence AACAGTCCCG, the switch fluorescence ratio is 0.993.

Regarding CGCGGGGTCA, the switch fluorescence ratio came to 1.04.

On to CGTTATGGAG, for which the switch fluorescence ratio is 1.

For TCGGAGTAGG, the switch fluorescence ratio was found to be 1.03.

On to ATCTTGGGAG, for which the switch fluorescence ratio amounted to 0.976.

For the sequence CTAATTAGAG, the switch fluorescence ratio came to 1.02.

Take GTGGGAGTTA: the switch fluorescence ratio is 0.981.

On to CTGAGGATAC, for which the switch fluorescence ratio was determined as 2.52.

Consider CTCAATGTGG, for which the switch fluorescence ratio is 0.979.

For CTGTATTTGC, the switch fluorescence ratio was determined as 0.988.

Turning to TGGAAGATGA, the switch fluorescence ratio was determined as 0.958.

As to GGATAGTCCG, the switch fluorescence ratio worked out at 1.03.

With AGAGCAGCCT, the switch fluorescence ratio was 1.05.

As for CGTGGGAGCC, the switch fluorescence ratio stood at 0.975.

GAAAGTCCTA: the switch fluorescence ratio stood at 1.03.

On to GCATCCAATT, for which the switch fluorescence ratio turned out to be 1.03.

As for TGGGTGGCCC, the switch fluorescence ratio worked out at 1.03.

Take TCTAGTATGA: the switch fluorescence ratio is 0.973.

Consider GGGCACCAAA, for which the switch fluorescence ratio amounted to 0.999.

Consider CTATAACTGA, for which the switch fluorescence ratio came to 0.948.

As to TTATTCACGT, the switch fluorescence ratio came to 1.01.

As to CCCCGAGCCC, the switch fluorescence ratio came to 1.33.

For GCTGAAGCGC, the switch fluorescence ratio is 0.976.

Regarding CCCACAAACT, the switch fluorescence ratio worked out at 1.31.

With TACTATTTT, the switch fluorescence ratio stood at 0.968.

For the sequence AGGCGACGCA, the switch fluorescence ratio was determined as 1.07.

In the case of CACAGACGCT, the switch fluorescence ratio was found to be 1.22.

As to AGGCAGAGCG, the switch fluorescence ratio was found to be 0.96.

Source of the values: the supplement of paper PMC10126150.
